Data on eight compounds can be found in the antibiotic and cytotoxicity screens of Wong et al. (2023).

The other results are listed elsewhere or left out.

The experiment deals with HSkMC (human skeletal muscle cells). The experiment in a line: cytotoxicity call (relative viability < 0.9). The settings on record: 10 µM.
For `CC(=O)O[C@H]1[C@H](O)[C@@H](O[C@@H]2C[C@](C)(O[C@H]3O[C@H](C)[C@H](O)[C@H](O)[C@@H]3O[C@@H]3O[C@H](C)[C@@H](O)[C@H](O)[C@@H]3O)O[C@@H]3CC[C@H]4C(C)(C)CCC[C@]4(C)[C@@H]23)O[C@@H](CO)[C@H]1O`, the cytotoxicity call is “inactive”.

For `C=CCOC(=O)[C@H]1[C@@H]2C(=O)O[C@@H](c3ccccc3)[C@@H](c3ccccc3)N2[C@@H](c2ccc(OCCOC(=O)[C@H]3C[C@H]4C(=O)N[C@@H](Cc5ccccc5)C(=O)N4[C@H]3c3cccc(OCCO)c3)cc2)[C@]12C(=O)Nc1ccc(I)cc12`, the cytotoxicity call was “inactive”.

Consider `COc1ccc(NC(=O)Nc2ccc3c(c2)C(=O)N([C@H](C)CO)C[C@@H](C)[C@@H](CN(C)Cc2ccc(-c4ccccc4)cc2)O3)cc1`, for which the cytotoxicity call is “inactive”.

Regarding `C[C@@H]1CN([C@@H](C)CO)C(=O)Cc2cc(NC(=O)Nc3cccc4ccccc34)ccc2O[C@@H]1CN(C)C(=O)Nc1ccc(F)cc1`, the cytotoxicity call was “inactive”.

As for `C[C@@H]1CN([C@@H](C)CO)C(=O)c2cccc(NC(=O)Nc3ccc4c(c3)OCO4)c2O[C@@H]1CN(C)Cc1ccc(Oc2ccccc2)cc1`, the cytotoxicity call is “inactive”.

Take `CCn1nnc2c(N3CCOCC3)ncnc21`: the cytotoxicity call is “inactive”.

With `C[C@H]1CN([C@@H](C)CO)C(=O)c2cc(NC(=O)CCN3CCOCC3)ccc2O[C@H]1CN(C)Cc1ccccc1`, the cytotoxicity call is “inactive”.

`C[C@@H]1CCCCO[C@H](CN(C)Cc2ccc3c(c2)OCO3)[C@H](C)CN([C@H](C)CO)C(=O)c2cc(NC(=O)CCC(F)(F)F)ccc2O1`: the cytotoxicity call is “inactive”.
